According to patent publication US20100330105A1, “Anticancer Combination Therapies” (priority 2006, published 2010):

What was measured:
[1] = system: TC-1 tumor cells; assay: Determination of apoptotic cells in tumors (anti-active caspase-3, flow cytometry)
[2] = system: TC-1 tumor cells; assay: In vivo tumor growth experiments in tumor challenged mice treated with EGCG; design: species or system C57BL/6 mice; conditions: EGCG 0 to 0.5 mg/ml in drinking water for five days
From the text: Determination of apoptotic cells in tumors. […] Intracellular cytokine staining and flow cytometry analysis. […] In vivo tumor growth experiments.

In the case of epigallocatechin-3-gallate [EGCG], the “increase in the percentage of apoptosis in TC-1 tumors” value ([1]; 2.5 mg/ml EGCG compared to 0 mg/ml EGCG) is reported as “greater than 11 fold”, the “tumor cell apoptosis versus EGCG dose” value ([1]; EGCG 0, 0.1, 0.5 or 2.5 mg/ml in drinking water) is reported as “dose-dependent apoptosis” and the “percentage of apoptosis in TC-1 tumors” value ([1]; EGCG 2.5 mg/ml in drinking water for five days, started 10 days after tumor inoculation) is reported as 3.41%. The “tumor volume 1 week after termination of EGCG treatment” value [2] was “correlative decrease in tumor volume”.
